Data as given in publication PMC4336329 (PLoS ONE, 2015).
In all, about 310,000 compounds went through this assay and about 14,000 (4.5%) showed an effect of 50% or more. Effects have a minus sign here. The list shows a part of the results.

Target: human ether-à-go-go-related gene (hERG) potassium channel (human, UniProt Q12809)
Experiment: primary screen, population patch clamp on CHO cells stably expressing hERG
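Note: peak tail current of the secondary pulse compared with the same well before compound.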

human ether-à-go-go-related gene (hERG) potassium channel, sequence (Q12809 whole entry, looked up): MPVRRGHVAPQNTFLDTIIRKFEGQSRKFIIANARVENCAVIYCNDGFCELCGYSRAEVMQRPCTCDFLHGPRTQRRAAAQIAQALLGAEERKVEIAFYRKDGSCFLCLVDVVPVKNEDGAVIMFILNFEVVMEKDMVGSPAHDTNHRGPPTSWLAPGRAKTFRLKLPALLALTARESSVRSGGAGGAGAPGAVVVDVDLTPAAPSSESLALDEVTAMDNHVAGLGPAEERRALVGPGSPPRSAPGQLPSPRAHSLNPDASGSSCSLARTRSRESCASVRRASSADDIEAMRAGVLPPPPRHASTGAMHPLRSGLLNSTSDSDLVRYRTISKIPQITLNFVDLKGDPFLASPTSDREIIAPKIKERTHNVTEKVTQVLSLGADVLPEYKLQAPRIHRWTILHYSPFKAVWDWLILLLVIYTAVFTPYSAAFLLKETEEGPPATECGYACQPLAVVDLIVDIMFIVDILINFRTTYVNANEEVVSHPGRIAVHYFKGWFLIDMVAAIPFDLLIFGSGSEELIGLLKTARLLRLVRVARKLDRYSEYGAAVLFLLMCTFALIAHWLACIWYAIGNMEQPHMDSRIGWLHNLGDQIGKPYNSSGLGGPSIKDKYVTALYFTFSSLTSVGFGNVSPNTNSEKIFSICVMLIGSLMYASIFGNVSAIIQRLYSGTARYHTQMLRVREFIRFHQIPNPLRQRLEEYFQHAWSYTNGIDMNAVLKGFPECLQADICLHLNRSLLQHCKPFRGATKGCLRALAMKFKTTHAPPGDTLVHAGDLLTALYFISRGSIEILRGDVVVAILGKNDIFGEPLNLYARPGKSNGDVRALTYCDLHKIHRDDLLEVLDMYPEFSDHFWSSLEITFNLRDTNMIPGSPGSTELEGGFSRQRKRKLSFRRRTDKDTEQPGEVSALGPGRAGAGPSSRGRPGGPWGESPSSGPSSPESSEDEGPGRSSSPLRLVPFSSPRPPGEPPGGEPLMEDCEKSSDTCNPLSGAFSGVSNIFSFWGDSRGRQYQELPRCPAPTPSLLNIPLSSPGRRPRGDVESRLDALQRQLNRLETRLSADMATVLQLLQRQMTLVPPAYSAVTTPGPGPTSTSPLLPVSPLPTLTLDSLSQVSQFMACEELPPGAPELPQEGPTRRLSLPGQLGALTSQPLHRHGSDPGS

Compared with `O=C(c1ccc2nc[nH]c2c1)N1CCN(c2ncc(C(F)(F)F)cc2Cl)CC1`, `Cc1cc2c(=O)n(CC(=O)N3CCN(c4ccccc4)CC3)cnc2s1` is higher in “hERG current change (%, negative = inhibition) at 10uM” value: -53.6% for the first, 10.5% for the second.

Going from `COc1ccc(CNC(=O)c2noc(C)c2[N+](=O)[O-])cc1` to `COCCNC(=O)c1ccc(CS(=O)(=O)c2ccc(OC)cc2)o1`, the “hERG current change (%, negative = inhibition) at 10uM” value falls from 6.86% to -0.154%.

Going from `Clc1cccc(-c2nc(-c3ccccn3)no2)c1` to `O=C(Nc1nc(-c2cccnc2)cs1)c1cccc([N+](=O)[O-])c1`, the “hERG current change (%, negative = inhibition) at 10uM” value falls from 4.39% to 1.49%.

Going from `CCC(C)n1c(O)c(/C=N/Nc2nc3c(c(=O)n(C)c(=O)n3C)n2C)c(=O)[nH]c1=S` (centres unmarked) to `CCCCn1c(O)c(C=NCCN2CCCCC2)c(=O)[nH]c1=O`, the “hERG current change (%, negative = inhibition) at 10uM” value falls from 13.4% to -2.31%.

Compared with `COCCN(C(=O)c1ccc(-c2ccc(Cl)cc2)o1)c1c(N)n(Cc2ccccc2)c(=O)[nH]c1=O`, `CCOC(=O)c1ccc(NC(=O)c2nc(S(=O)(=O)Cc3ccccc3)ncc2Cl)cc1` is higher in “hERG current change (%, negative = inhibition) at 10uM” value: -31.5% for the first, 34.2% for the second.

Going from `COc1ccc(N2C(=O)CC(N3CCN(c4ccccc4F)CC3)C2=O)cc1` (centres unmarked) to `COc1ccc(N2CCN(C(CNC(=O)C(=O)NCc3cccs3)c3ccco3)CC2)cc1` (centres unmarked), the “hERG current change (%, negative = inhibition) at 10uM” value falls from -1.33% to -8.15%.

Going from `CN(C)/C=N/c1cnc(C(=O)c2ccc(Cl)cc2)n1C` to `COc1ccc(C(=O)c2cnc(/N=C/N(C)C)s2)cc1`, the “hERG current change (%, negative = inhibition) at 10uM” value falls from 5.58% to 5.1%.

Going from `O=C(CCc1nc2ccccc2c(=O)[nH]1)N1CCN(C/C=C/c2ccccc2)CC1` to `C=C1CCN(Cc2ccccc2)S(=O)(=O)c2ccccc21`, the “hERG current change (%, negative = inhibition) at 10uM” value rises from -42.4% to -23.4%.

Compared with `CC(=O)n1c(=O)oc2ccccc21`, `CC(=O)Nc1cccc(NC(=O)c2cc3ccccc3o2)c1` is lower in “hERG current change (%, negative = inhibition) at 10uM” value: 17.3% for the first, -10.1% for the second.

Compared with `COc1ccc(S(N)(=O)=O)cc1C(=O)N1CCCC1`, `O=C(Nc1ccc(S(=O)(=O)N2CCCC2)cc1)c1cnccn1` is higher in “hERG current change (%, negative = inhibition) at 10uM” value: 9.17% for the first, 21.3% for the second.

Compared with `COc1ccc(NC(=S)N/C(=N/CS(=O)(=O)c2ccccc2)c2ccccc2)cc1`, `COc1ccc(-c2cccc(C(=O)Nc3ccccc3C)c2)cc1` is higher in “hERG current change (%, negative = inhibition) at 10uM” value: -53% for the first, -9.12% for the second.

Going from `CCc1ccc(OCC(=O)NNC(=O)Cc2c(F)cccc2Cl)cc1` to `COc1ccc2nc(NNC(=O)COc3ccccc3)sc2c1`, the “hERG current change (%, negative = inhibition) at 10uM” value falls from 13.6% to -2.64%.

First: O=C(CN1C(=O)COc2ccc(S(=O)(=O)N3CCCC3)cc21)NCc1ccccn1
Second: O=C(CCn1ccc2cc(S(=O)(=O)N3CCCC3)ccc21)NCc1ccccc1F
The “hERG current change (%, negative = inhibition) at 10uM” value of the first is higher: 2.13% for the first, -8.63% for the second.

Going from `Cc1ccc(Cn2nnc3c(=O)[nH]c(C4CCN(S(=O)(=O)c5ccc(F)cc5)CC4)nc32)cc1` to `Cc1nc2c(-c3ccc(F)cc3)c(C)nn2c(C)c1CCC(=O)N1CCN(c2ccc(F)cc2)CC1`, the “hERG current change (%, negative = inhibition) at 10uM” value falls from 6.62% to -74.6%.

First: CCn1c(CNC(=O)c2ccc(OC)cc2)nnc1SCC(=O)c1ccccc1
Second: CC(=O)OCC1(C)CN(c2ccccc2)N(C(=O)c2ccc(F)cc2)C1=O (centres unmarked)
The “hERG current change (%, negative = inhibition) at 10uM” value of the first is lower: -6.08% for the first, -0.0352% for the second.

Going from `CSc1ccccc1NC(=O)C(=O)c1c[nH]c2ccccc12` to `O=C(Cc1ccccc1[N+](=O)[O-])OCC(=O)c1c[nH]c2ccccc12`, the “hERG current change (%, negative = inhibition) at 10uM” value falls from 6.02% to -3.14%.

`CC1=C(C(=O)Nc2ccccc2C)C(c2ccccc2)NC(=O)N1` (centres unmarked) and `Cc1ccccc1NC(=S)NC(=O)COc1ccccc1C` are the same in “hERG current change (%, negative = inhibition) at 10uM” value: 12.2% for the first, 12.2% for the second.

Going from `COC(=O)C1CCN(C(=O)CSc2nnc(-c3ccccc3)o2)CC1` to `CCOC(=O)C1CCN(S(=O)(=O)c2cccc(C(=O)Nc3ccccc3)c2)CC1`, the “hERG current change (%, negative = inhibition) at 10uM” value falls from -5.51% to -37%.

First: O=C(c1cccnc1)N(c1cc2sc(=O)oc2c2ccccc12)S(=O)(=O)c1ccccc1
Second: CCOc1cccc2cc(C(=O)Nc3ccccc3-c3ccccc3)c(=O)oc12
The “hERG current change (%, negative = inhibition) at 10uM” value of the first is higher: 12.5% for the first, -12% for the second.

First: CC(C)(C)OC(=O)NCCCC[C@H](NC(=O)c1nc[nH]c1C(=O)N[C@@H](CCCCNC(=O)OC(C)(C)C)C(=O)OC(C)(C)C)C(=O)OC(C)(C)C
Second: COc1cc(CC(=O)NNC(=O)c2cc(C)oc2C)cc(OC)c1OC
The “hERG current change (%, negative = inhibition) at 10uM” value of the first is lower: 9.81% for the first, 24.1% for the second.

Compared with `COc1ccc(C(=O)NCc2cccnc2)cc1C(=O)NCc1cccnc1.O`, `COC(=O)/C(=C\Nc1ccc(Oc2ccc(F)cc2F)nc1)NC(=O)c1ccccc1` is lower in “hERG current change (%, negative = inhibition) at 10uM” value: 11.9% for the first, 10% for the second.

Compared with `O=C(NCc1ccccn1)Nc1cccc(F)c1`, `Cc1nn(C)cc1CNC(=O)Nc1ccc(Cl)c(Cl)c1` is lower in “hERG current change (%, negative = inhibition) at 10uM” value: 22.7% for the first, 0.612% for the second.

Going from `CCOc1ccc(-c2c(C(=O)N/N=C/C3CC=CCC3)nnn2-c2nonc2N)cc1` (centres unmarked) to `CCOc1ccc(Nc2ncnc3c2cnn3-c2ccccc2)cc1`, the “hERG current change (%, negative = inhibition) at 10uM” value rises from 0.674% to 8.65%.

Going from `COc1cccc(C#Cc2c(CO)[nH]c3ccccc23)c1` to `COc1ccccc1N=Nc1ccc(N)c(C)c1`, the “hERG current change (%, negative = inhibition) at 10uM” value rises from -7.79% to 10.1%.

First: CNC(=S)N/N=C(\C)c1ccc(Cl)c(Cl)c1
Second: COc1cc(Cl)c(C)cc1NC(=S)NN
The “hERG current change (%, negative = inhibition) at 10uM” value of the first is higher: 30.1% for the first, 16.7% for the second.

First: CCOC(=O)c1c(C)[nH]c(C)c1C(=O)CSc1nc2ccccc2c(=O)n1-c1ccc(CC)cc1
Second: CCOC(=O)CSc1nc2c(c(=O)n1-c1ccc(OC)cc1)SCC2
The “hERG current change (%, negative = inhibition) at 10uM” value of the first is higher: 7.09% for the first, -9.55% for the second.

First: O=c1cc(O)c2sc3nc4c(c(C(F)(F)F)c3c2[nH]1)CCCCC4
Second: CSc1nc2nc3c(c(=O)n2[nH]1)CCCC3
The “hERG current change (%, negative = inhibition) at 10uM” value of the first is lower: -9.56% for the first, 6.27% for the second.

Compared with `Cc1nc2ccccc2c(=O)n1/N=C/c1ccc(O)cc1`, `Cc1ccc(C)c(-c2cc(C(=O)Nc3nccs3)c3ccccc3n2)c1` is lower in “hERG current change (%, negative = inhibition) at 10uM” value: 10.9% for the first, -8.77% for the second.

First: CCOC(=O)/C(=C/c1ccco1)NC(=O)c1ccc(Br)o1
Second: CC(C)(O)C#Cc1ccc(CN2CCCC(CNC(=O)c3ccco3)C2)cc1 (centres unmarked)
The “hERG current change (%, negative = inhibition) at 10uM” value of the first is higher: 1.52% for the first, -10.9% for the second.

Compared with `Cc1ccc(-c2csc3nnc(SCc4csc(C)n4)n23)cc1`, `Cc1cccc(-c2nnc3n2N=C(c2ccccc2Br)CS3)c1` is higher in “hERG current change (%, negative = inhibition) at 10uM” value: -23.7% for the first, -14.4% for the second.

Going from `CN(C)C(CNC(=O)NC1CCCCC1)c1cccnc1` (centres unmarked) to `CC1(C)CC(=O)C=C(NNC(=O)C2CCCCC2)C1`, the “hERG current change (%, negative = inhibition) at 10uM” value falls from 11.5% to 8.47%.

Going from `CCC(=O)N1CC2(CC(c3cccc([N+](=O)[O-])c3)=NO2)C[C@H]1C(=O)NCC(N)=O` (some centres unmarked) to `CCC1CCCCN1S(=O)(=O)c1ccc(NC(=O)c2ccncc2)cc1` (centres unmarked), the “hERG current change (%, negative = inhibition) at 10uM” value falls from 9.53% to -16.6%.

Compared with `CC(Oc1ccc(Br)cc1)C(=O)Nc1cc(Cl)ccc1N1CCN(C)CC1` (centres unmarked), `O=C(Nc1nnc(-c2ccc(Cl)cc2)o1)Nc1ccccc1F` is higher in “hERG current change (%, negative = inhibition) at 10uM” value: -12.6% for the first, 1.31% for the second.

Compared with `Cc1cc(/C=C(\C#N)C(=O)O)c(C)n1CC1CCCO1` (centres unmarked), `CC1=C(C(=O)OC2CCCCCCC2)C(c2cccc(O)c2)NC(=O)N1` (centres unmarked) is lower in “hERG current change (%, negative = inhibition) at 10uM” value: 23.8% for the first, -29.5% for the second.

Compared with `C=CCN(C(=O)CSc1nc2ccsc2c(=O)n1Cc1ccccn1)c1ccccc1`, `COc1ccccc1N1N=C(c2cccs2)CC1c1ccccc1` (centres unmarked) is higher in “hERG current change (%, negative = inhibition) at 10uM” value: -19.4% for the first, 1.08% for the second.

Going from `Cc1ccccc1-n1nc(C)c2c1N=C1C(Cl)=CC(Cl)=CN1C2c1ccc(C(=O)O)cc1` (centres unmarked) to `Cc1cc(C)n(-c2ccc(C(=O)NCc3cccs3)cc2)n1`, the “hERG current change (%, negative = inhibition) at 10uM” value falls from 11.9% to -39.2%.

Going from `Oc1c(Cl)cc(Cl)cc1/C=C/c1ccc2cccc(O)c2n1` to `Clc1ccc(CSc2nnnn2-c2ccc3c(c2)OCO3)c(Cl)c1`, the “hERG current change (%, negative = inhibition) at 10uM” value falls from 18.1% to 2.12%.

Compared with `CCOc1ccc(N/C=C/C(=O)c2ccc(OC)cc2)cc1`, `COc1ccc(C(=O)ON=C2C=C(C)C(=O)C(C)=C2)cc1` is higher in “hERG current change (%, negative = inhibition) at 10uM” value: -5.92% for the first, 1.65% for the second.

First: CCC(C)(C)n1nnnc1CN1CCc2ccccc21
Second: Cc1ccc(C(C)(C)C)c(OCCN2CCCC2)c1
The “hERG current change (%, negative = inhibition) at 10uM” value of the first is higher: 3.74% for the first, -19.5% for the second.

Compared with `CCN(CCn1cccn1)Cc1c(C(=O)N2CCCCCCC2)nc2ccc(Cl)cn12`, `COc1cccc(N(Cc2nnc3n2CCCCC3)C(=O)Nc2ccccc2)c1` is higher in “hERG current change (%, negative = inhibition) at 10uM” value: -32.4% for the first, 8.11% for the second.

Compared with `Cc1c(C(=O)Oc2cccc3cccnc23)cccc1[N+](=O)[O-]`, `N#Cc1cccc2c1-c1ccccc1/C2=N/NC(N)=S` is higher in “hERG current change (%, negative = inhibition) at 10uM” value: 4.51% for the first, 5.21% for the second.

Going from `CS(=O)(=O)c1nncn1-c1ccccc1` to `CCCc1cc(-c2n[nH]c(=S)n2C(C)c2ccccc2)cs1` (centres unmarked), the “hERG current change (%, negative = inhibition) at 10uM” value falls from 17.5% to 9.74%.

Compared with `Cc1[nH][nH]c(=O)c1C(c1ccc2c(c1)OCO2)c1c(C)[nH][nH]c1=O`, `Cc1ccc2c(C(=O)CCl)c(C)[nH]c2c1` is lower in “hERG current change (%, negative = inhibition) at 10uM” value: 17.8% for the first, 1.22% for the second.

First: CC(C)(C)c1ccc(-c2ccc3c(c2)S(=O)(=O)c2ccccc2C3=O)cc1
Second: COc1ccc(Br)c(C(=O)NC(C)(C)CO)c1
The “hERG current change (%, negative = inhibition) at 10uM” value of the first is higher: 15.9% for the first, 8.72% for the second.

`CC1(C)CN=C(Nc2ccc(F)c(Cl)c2)S1` was tested, and the “hERG current change (%, negative = inhibition) at 10uM” value was 3.15%.
